We go through two molecules from article PMC10509304.

The target of experiment [1] is T1, murine CD81 with C-terminal 3xFLAG epitope, transiently expressed in HEK293 (mouse) (UniProt P35762).
T1 sequence: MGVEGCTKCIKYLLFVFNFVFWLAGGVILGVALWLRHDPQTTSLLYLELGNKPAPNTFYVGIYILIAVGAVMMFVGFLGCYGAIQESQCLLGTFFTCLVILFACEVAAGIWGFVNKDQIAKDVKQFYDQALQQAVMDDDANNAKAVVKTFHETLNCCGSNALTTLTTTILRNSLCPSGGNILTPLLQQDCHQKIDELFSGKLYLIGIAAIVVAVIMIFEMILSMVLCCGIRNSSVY
The experiment can be described thus: co-IP; transient co-expression in HEK293 cells; lysis in IP buffer (50 mM Tris/HCl pH 7.4, 150 mM NaCl, 4 mM EDTA) with 1% Brij-98; 3xFLAG-tagged tetraspanin precipitated with anti-FLAG M2 agarose overnight at 4°C; Western blot. (Immunoblotting shows a protein as a band on a membrane.)

In experiment [2] the target is T2, murine CD9 with C-terminal 3xFLAG epitope, transiently expressed in HEK293 (mouse) (UniProt P40240).
T2 sequence: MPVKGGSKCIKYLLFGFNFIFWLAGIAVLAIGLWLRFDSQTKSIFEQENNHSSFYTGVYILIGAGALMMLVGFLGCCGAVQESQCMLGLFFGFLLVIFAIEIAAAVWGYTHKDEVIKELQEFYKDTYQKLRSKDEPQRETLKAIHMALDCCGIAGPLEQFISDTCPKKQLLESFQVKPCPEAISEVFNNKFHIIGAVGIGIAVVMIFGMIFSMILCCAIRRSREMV
The description is as above.

The target of experiment [3] is T3, murine CD82 with C-terminal 3xFLAG epitope, transiently expressed in HEK293 (mouse) (UniProt P40237).
T3 sequence: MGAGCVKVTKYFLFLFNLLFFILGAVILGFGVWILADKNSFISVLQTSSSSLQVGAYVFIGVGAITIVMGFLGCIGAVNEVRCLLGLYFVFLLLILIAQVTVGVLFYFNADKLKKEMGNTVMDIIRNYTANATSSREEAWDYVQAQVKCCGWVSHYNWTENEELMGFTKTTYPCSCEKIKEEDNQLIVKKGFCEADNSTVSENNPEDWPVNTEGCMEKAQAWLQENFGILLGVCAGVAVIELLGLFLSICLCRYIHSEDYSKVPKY
The experiment is described as above.

For experiment [4], the target named is T1, murine CD81 with C-terminal 3xFLAG epitope, transiently expressed in HEK293 (mouse). The description is as above. The source holds these as a separate data set.
The target in experiment [5] is T2, murine CD9 with C-terminal 3xFLAG epitope, transiently expressed in HEK293 (mouse). The description is as above. The source holds these as a separate data set.
The target in experiment [6] is T3, murine CD82 with C-terminal 3xFLAG epitope, transiently expressed in HEK293 (mouse). The experiment is described as above. This is another data set of the same source.
In experiment [7] the target is T1, murine CD81 with C-terminal 3xFLAG epitope, transiently expressed in HEK293 (mouse). The experiment can be described thus: condition: only extraction with 1% Triton X-100 (no TNF co-expressed); co-IP; transient co-expression in HEK293 cells; lysis in IP buffer with 1% Triton X-100; 3xFLAG-tagged tetraspanin precipitated with anti-FLAG M2 agarose; Western blot.
In experiment [8] the target is T2, murine CD9 with C-terminal 3xFLAG epitope, transiently expressed in HEK293 (mouse). The description is as above.
The target in experiment [9] is T3, murine CD82 with C-terminal 3xFLAG epitope, transiently expressed in HEK293 (mouse). The experiment is described as above.

These are yes or no findings as the source states them, for the method shown. Binding seen in cells or lysates may run through a third protein. Some binding calls cover weakened binding; strength is not graded here. Sequences can lack the tags named with a protein.

As to “endogenous epidermal growth factor receptor (EGFR) (from UniProt P00533 25-1210)”, the binding entry in experiment [1], in [2] and in experiment [3] was “no binding” each time.

B1: murine SPPL2a fused to a C-terminal Myc-tag (enzyme, UniProt Q9JJF9 26-523)
chain: QEAILHASTNGVSSLSKDYCMYYNNNWTRLPSSLENATSLSLMNLTGTALCHLSDIPPDGIRNKAVVVHWGPCHFLEKARIAQEGGAAALLIANNSVLIPSSRNKSTFQNVTVLIAVITQKDFKDMKETLGDDITVKMYSPSWPNFDYTLVVIFVIAVFTVALGGYWSGLIELENMKSVEDAEDRETRKKKDDYLTFSPLTVVVFVVICCIMIVLLYFFYRWLVYVMIAIFCIASSMSLYNCLSALIHRMPCGQCTILCCGKNIKVSLIFLSGLCISVAVVWAVFRNEDRWAWILQDILGIAFCLNLIKTMKLPNFMSCVILLGLLLIYDVFFVFITPFITKNGESIMVELAAGPFENAEKLPVVIRVPKLMGYSVMSVCSVPVSVLGFGDIIVPGLLIAYCRRFDVQTGSSIYYISSTIAYAVGMIITFVVLMVMKTGQPALLYLVPCTLITVSVVAWSRKEMKKFWKGSSYQVMDHLDYSTNEENPVTTDEQIVQQ
With B1, the binding result in [4] is “binds”; in experiment [5], “binds”; in [6], “binds”; in [7], “no binding”; in [8], “no binding”; in experiment [9], “no binding”.
